Source: the supplement of paper PMC10369915
The list shows a part of the results. Cut-off read from the data, not from the text of the source: active = 3.2 or more and inactive = the rest. The signal is at background level for most entries.

How the values were obtained:
Assay in all cases: enrichment score (SH2-bound / input frequency) (ratio); bacterial display of known human phosphotyrosine sites (pTyr-Var adds point mutants) read by sequencing; higher = stronger binding; tyrosines were phosphorylated by kinases first
Conditions in all cases: peptide library: pTyr-Var
[1] = molecular target: SHP2 C-SH2 domain E139D
[2] = molecular target: SHP2 C-SH2 domain wild-type
[3] = molecular target: SHP2 N-SH2 domain L43F
[4] = molecular target: SHP2 N-SH2 domain T42A
[5] = molecular target: SHP2 N-SH2 domain T52S
[6] = molecular target: SHP2 N-SH2 domain wild-type
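Note: displayed peptides selected on beads carrying the immobilized SH2 domain, with library peptides lacking any tyrosine serving as negative controls.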

| Binder | enrichment score [1] | enrichment score [2] | enrichment score [3] | enrichment score [4] | enrichment score [5] | enrichment score [6] |
| --- | --- | --- | --- | --- | --- | --- |
| GINDDYGQLKN [NBN_Y679] | inactive: 0.427 | inactive: 0.63 | inactive: 0.37 | inactive: 0.624 | inactive: 0.64 | inactive: 0.603 |
| GINDDHGQLKN [NBN_Y679_Y679H] | inactive: 0.451 | inactive: 0.513 | inactive: 0.595 | inactive: 0.4 | inactive: 0.51 | inactive: 0.553 |
| STGSRYQPLAS [NCAPD2_Y1325] | inactive: 0.765 | inactive: 0.666 | inactive: 0.608 | inactive: 0.645 | inactive: 0.598 | inactive: 0.685 |
| SSGSRYQPLAS [NCAPD2_Y1325_T1321S] | inactive: 0.603 | inactive: 0.579 | inactive: 0.488 | inactive: 0.515 | inactive: 0.606 | inactive: 0.669 |
| MAPQMYESHLP [NCAPD2_Y6_F8S] | inactive: 0.817 | inactive: 0.67 | inactive: 0.789 | inactive: 0.729 | inactive: 0.886 | inactive: 1.04 |
| SEKVVYRRFTE [NCF1_Y41] | inactive: 0.241 | inactive: 0.312 | inactive: 0.323 | inactive: 0.436 | inactive: 0.386 | inactive: 0.386 |
| ACEVLYNIAFM [NCF2_Y125] | inactive: 1.15 | inactive: 1.62 | inactive: 1.39 | inactive: 0.967 | inactive: 0.891 | inactive: 1.47 |
| ACEVLYNIVFM [NCF2_Y125_A128V] | inactive: 1.36 | inactive: 1.27 | inactive: 1.35 | inactive: 1.29 | inactive: 1.03 | inactive: 1.92 |
| KLRMESLSLMH [NCKIPSD_Y660_Y660S] | inactive: 1.43 | inactive: 1 | inactive: 1 | inactive: 1.03 | inactive: 1.18 | inactive: 1.15 |
| NKVKFYIPYMN [NCR1_Y84_D87Y] | active: 3.97 | active: 3.94 | active: 3.53 | active: 3.38 | active: 3.34 | active: 3.63 |
| SVETPYGSVTF [NDRG2_Y47] | inactive: 0.92 | inactive: 0.83 | inactive: 0.87 | inactive: 0.841 | inactive: 0.761 | inactive: 0.753 |
| SVESPYGSVTF [NDRG2_Y47_T45S] | inactive: 0.755 | inactive: 0.635 | inactive: 0.698 | inactive: 0.718 | inactive: 0.77 | inactive: 0.864 |
| PADRAYSWYQH [NDST1_Y711] | inactive: 0.969 | inactive: 1.03 | inactive: 0.835 | inactive: 0.778 | inactive: 0.831 | inactive: 0.71 |
| RAFSWYQHQRA [NDST1_Y714_YF] | inactive: 2.21 | inactive: 1.8 | inactive: 2.08 | inactive: 1.59 | inactive: 1.68 | inactive: 2.13 |
| LPENPYHSRPR [NDUFA8_Y142] | inactive: 0.584 | inactive: 0.63 | inactive: 0.675 | inactive: 0.619 | inactive: 0.631 | inactive: 0.556 |
| FPKDVYVDSKD [NDUFAF4_Y69_L65P] | inactive: 0.79 | inactive: 0.783 | inactive: 0.629 | inactive: 0.608 | inactive: 0.809 | inactive: 0.744 |
| LTSKPYAFTAW [NDUFS1_Y236_R241W] | inactive: 0.983 | inactive: 0.971 | inactive: 0.896 | inactive: 1.09 | inactive: 1.13 | inactive: 0.95 |
| GMTLSYLFREP [NDUFS8_Y74] | inactive: 2.14 | inactive: 2.16 | inactive: 2.13 | inactive: 2.19 | inactive: 2.49 | inactive: 2.21 |
| GMTLSYLFREL [NDUFS8_Y74_P79L] | active: 3.7 | inactive: 3.16 | inactive: 3.19 | inactive: 2.82 | inactive: 3.14 | inactive: 2.9 |
